In all, about 39,000 compounds went through this assay and about 220 (0.56%) showed activity. The list shows a part of the results.
These compounds were tested on Escherichia coli K-12 BW25113 (assay: relative growth (OD600 normalised to plate interquartile mean) (fraction); higher = less growth inhibition, active = 0.2 or less). Conditions: 50 µM; LB; incubation time: overnight (16-24 h).
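Note: static incubation at 37 °C against the wild-type strain, values averaged over two biological replicates.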

| SMILES | relative growth |
| --- | --- |
| COc1ccc(S(=O)(=O)Nc2ccc3c(c2)CC(=O)N([C@@H](C)CO)C[C@@H](C)[C@H](CN(C)Cc2ccc(Oc4ccccc4)cc2)O3)cc1 | inactive: 0.996 |
| C[C@@H]1CCCCO[C@H](CN(C)Cc2ccc(C(=O)O)cc2)[C@@H](C)CN([C@@H](C)CO)C(=O)c2cc(NC(=O)NC3CCCCC3)ccc2O1 | inactive: 0.973 |
| C[C@@H]1CCCCO[C@@H](CN(C)Cc2ccccc2)[C@@H](C)CN([C@H](C)CO)C(=O)c2cc(NC(=O)Cc3ccccc3)ccc2O1 | inactive: 1 |
| C[C@@H]1CN([C@H](C)CO)C(=O)Cc2cc(NC(=O)C3CCCCC3)ccc2O[C@H]1CN(C)Cc1ccc(C(F)(F)F)cc1 | inactive: 0.95 |
| C[C@H](CO)N1C[C@H](C)[C@H](CN(C)C(=O)Nc2ccc(F)cc2)Oc2ccc(NC(=O)CCN3CCOCC3)cc2CC1=O | inactive: 0.959 |
| C[C@H](CO)N1C[C@H](C)[C@@H](CN(C)S(=O)(=O)c2cn(C)cn2)OCCCC[C@H](C)Oc2ccc(NC(=O)Nc3cccc4ccccc34)cc2C1=O | inactive: 1.02 |
| C[C@@H]1CCCCO[C@@H](CN(C)Cc2ccc(C(F)(F)F)cc2)[C@@H](C)CN([C@@H](C)CO)C(=O)c2cc(NC(=O)Cc3ccccc3)ccc2O1 | inactive: 1.02 |
| C[C@H](N)C(=O)N1CCc2ccccc2C1 | inactive: 0.99 |
| C[C@H](CO)N1C[C@H](C)[C@H](CN(C)C(=O)Nc2cccc3ccccc23)Oc2ncc(C#Cc3cccc(F)c3)cc2C1=O | inactive: 0.992 |
| O=C(C[C@@H]1CC[C@H]2[C@@H](COC[C@@H](O)CN2S(=O)(=O)c2ccccc2F)O1)N1CCC(Cc2ccccc2)CC1 | inactive: 1.02 |
| CN1CCN(C(=O)C[C@H]2CC[C@@H]3[C@H](COC[C@@H](O)CN3C(=O)Nc3cc(Cl)cc(Cl)c3)O2)CC1 | inactive: 0.946 |
| CC1=CC2=NC(=O)C[C@](C)(C(=O)O)N2C=C1 | inactive: 1.01 |
| O=C(Cn1c(CO)c[nH]c1=S)NC1CC1 | inactive: 1.06 |
| C[C@H](CO)N1C[C@H](C)[C@@H](CN(C)S(=O)(=O)c2ccc(Cl)cc2)OCCCC[C@H](C)Oc2ccc(NC(=O)Nc3ccc(F)cc3)cc2C1=O | inactive: 1.05 |
| C[C@@H]1CN([C@@H](C)CO)C(=O)Cc2cc(NC(=O)Cn3cnnn3)ccc2O[C@@H]1CN(C)C(=O)Nc1ccc(C(F)(F)F)cc1 | inactive: 0.984 |
| CCOC(=O)c1cccc(C(=O)O)n1 | inactive: 1.01 |
| Cc1ccc(S(=O)(=O)N(C)C[C@H]2OCCCC[C@H](C)Oc3ccc(NC(=O)Cc4ccccc4)cc3C(=O)N([C@@H](C)CO)C[C@H]2C)cc1 | inactive: 1 |
| C[C@@H]1CN([C@@H](C)CO)C(=O)Cc2cc(NC(=O)C3CC3)ccc2O[C@H]1CN(C)C(=O)NC1CCCCC1 | inactive: 0.989 |
| S=C(SN1CCOCC1)N1CCOCC1 | inactive: 0.98 |
| COc1ccc(S(=O)(=O)Nc2cccc3c2O[C@@H](CN(C)Cc2ccc(Oc4ccccc4)cc2)[C@H](C)CN([C@H](C)CO)C3=O)cc1 | inactive: 1.05 |
| CC(C)NC(=O)N(C)C[C@H]1OCCCC[C@@H](C)Oc2ccc(NS(C)(=O)=O)cc2C(=O)N([C@H](C)CO)C[C@@H]1C | inactive: 0.984 |

| SMILES | relative growth |
| --- | --- |
| CC(C)C[C@@](O)(CC(=O)O)C(=O)O | inactive: 0.977 |
| CO[C@@H]1CN(C)C(=O)c2cc(NC(=O)CC(F)(F)F)ccc2OC[C@@H](C)N(S(=O)(=O)c2cn(C)cn2)C[C@H]1C | inactive: 1.02 |
| COc1cccc(-c2cnc3c(c2)C(=O)N([C@H](C)CO)C[C@H](C)[C@H](CN(C)S(=O)(=O)c2cccc(OC)c2)O3)c1 | inactive: 1.01 |
| CCCNC(=O)[C@@]1(Sc2ccc(C)cc2)CC(=O)N(Cc2cc(C(F)(F)F)cc(C(F)(F)F)c2)[C@@H]1c1ccc(CO)cc1I | inactive: 1 |
| COc1cc(F)c(C(C)C)cc1-c1ccc(C(F)(F)F)cc1CN1C(=O)O[C@H](c2cc(C(F)(F)F)cc(C(F)(F)F)c2)[C@@H]1C | inactive: 1.03 |
| COc1cc(NC(=O)c2cccs2)c(C(=O)OCC(=O)c2cc(C)n(-c3ccccc3)c2C)cc1OC | inactive: 0.995 |
| COc1ccc(S(=O)(=O)N(C)C[C@H]2OCCCC[C@H](C)Oc3ccc(NC(=O)Nc4ccccc4)cc3C(=O)N([C@@H](C)CO)C[C@@H]2C)cc1 | inactive: 1.03 |
| C[C@H]1CN([C@@H](C)CO)C(=O)c2cc(C#Cc3cccnc3)cnc2O[C@H]1CN(C)Cc1ccc(F)cc1 | inactive: 1 |
| Cc1noc(C)c1S(=O)(=O)Nc1ccc2c(c1)CC(=O)N([C@H](C)CO)C[C@H](C)[C@H](CN(C)Cc1ccc(Oc3ccccc3)cc1)O2 | inactive: 1.01 |
| C[C@@H]1CCCCO[C@@H](CN(C)S(=O)(=O)c2ccc(Cl)cc2)[C@H](C)CN([C@@H](C)CO)C(=O)c2cc(NS(=O)(=O)c3ccc(Cl)cc3)ccc2O1 | inactive: 1.02 |
| C[C@H]1CCCCO[C@H](CN(C)Cc2ccncc2)[C@@H](C)CN([C@@H](C)CO)C(=O)c2cc(NS(C)(=O)=O)ccc2O1 | inactive: 1.02 |
| COc1ccc(S(=O)(=O)Nc2ccc3c(c2)C(=O)N([C@@H](C)CO)C[C@H](C)[C@@H](CN(C)C(=O)Nc2ccc(C(F)(F)F)cc2)OCCCC[C@H](C)O3)cc1 | inactive: 1.05 |
| C[C@@H]1CN([C@@H](C)CO)C(=O)c2cccc(NS(C)(=O)=O)c2O[C@H]1CN(C)Cc1ccc(C(F)(F)F)cc1 | inactive: 0.979 |
| CC(=O)NC(=O)N[C@H]1CSC[C@@H]1OC(C)=O | inactive: 1 |
| C[C@@H]1CN([C@H](C)CO)C(=O)c2cc(NS(=O)(=O)c3cn(C)cn3)ccc2O[C@@H](C)CCCCO[C@@H]1CN(C)C(=O)CCCN(C)C | inactive: 1.05 |
| C[C@H]1CN([C@@H](C)CO)C(=O)CCCn2nncc2CO[C@@H]1CN(C)C(=O)Nc1ccc2c(c1)OCCO2 | inactive: 0.906 |
| O=C(C[C@H]1CC[C@@H](NC(=O)CN2CCOCC2)[C@@H](CO)O1)NC1CCC1 | inactive: 1.01 |
| C[C@@H]1CN([C@@H](C)CO)C(=O)c2cc(NC(=O)Nc3cccc4ccccc34)ccc2O[C@@H](C)CCCCO[C@@H]1CN(C)S(=O)(=O)c1cccs1 | inactive: 1.01 |
| C[C@@H]1CCCCO[C@@H](CN(C)CC2CCCCC2)[C@H](C)CN([C@H](C)CO)C(=O)c2cc(NC(=O)Nc3ccc(C(F)(F)F)cc3)ccc2O1 | inactive: 0.961 |
| OCc1cn(-c2ccccc2)nn1 | inactive: 0.971 |
| COc1c2ccoc2c(OC)c2oc(=O)ccc12 | inactive: 0.804 |

| SMILES | relative growth |
| --- | --- |
| COCC#Cc1cnc2c(c1)C(=O)N([C@@H](C)CO)C[C@H](C)[C@@H](CN(C)C(=O)CCN1CCCCC1)O2 | inactive: 0.978 |
| COc1ccc(-c2cnc3c(c2)C(=O)N([C@@H](C)CO)C[C@H](C)[C@@H](CN(C)C(=O)Cc2ccncc2)O3)cc1 | inactive: 1.02 |
| C[C@H]1CN([C@@H](C)CO)C(=O)c2cccc(NC(=O)Nc3ccc4c(c3)OCO4)c2O[C@@H]1CN(C)Cc1ccc(Cl)c(Cl)c1 | inactive: 1 |
| C[C@@H]1CN([C@@H](C)CO)C(=O)c2ccccc2-c2ccccc2CO[C@H]1CN(C)C(=O)N[C@H](C)c1ccccc1 | inactive: 0.991 |
| O=C1NC[C@@H]2CN(C(=O)c3cnccn3)C[C@@H]12 | inactive: 1.01 |
| COc1ccc(NC(=O)Nc2ccc3c(c2)CC(=O)N([C@H](C)CO)C[C@H](C)[C@H](CN(C)C(=O)Nc2ccc(C(F)(F)F)cc2)O3)cc1 | inactive: 0.991 |
| COC(=O)[C@@H](N)c1cccc(Cl)c1 | inactive: 0.896 |
| C[C@@H]1CN([C@@H](C)CO)C(=O)c2cccc(NC(=O)Nc3ccc(C(F)(F)F)cc3)c2O[C@H]1CN(C)C(=O)Nc1ccc(F)cc1 | inactive: 0.846 |
| C[C@@H]1CN([C@@H](C)CO)C(=O)c2cccc(NS(=O)(=O)c3cn(C)cn3)c2O[C@H]1CN(C)Cc1ccccc1 | inactive: 0.993 |
| COc1ccc2c(=O)ccoc2c1 | inactive: 0.851 |
| COc1ccc(-c2oc3c(CC=C(C)C)c(O[C@@H]4O[C@H](CO)[C@@H](O)[C@H](O)[C@H]4O)cc(O)c3c(=O)c2O[C@@H]2O[C@@H](C)[C@H](O)[C@@H](O)[C@H]2O)cc1 | inactive: 1.13 |
| C[C@@H]1CCCCO[C@@H](CN(C)S(=O)(=O)c2ccc(Cl)cc2)[C@@H](C)CN([C@H](C)CO)C(=O)c2cc(NC(=O)Cc3ccccc3)ccc2O1 | inactive: 0.991 |
| CC(C)NC(=O)Nc1ccc2c(c1)C(=O)N([C@@H](C)CO)C[C@H](C)[C@@H](CN(C)CC1CCCCC1)OCCCC[C@H](C)O2 | inactive: 0.971 |
| CCCc1cc(=O)nc(SCC(N)=O)[nH]1 | inactive: 1 |
| COc1ccc(S(=O)(=O)Nc2ccc3c(c2)C(=O)N([C@@H](C)CO)C[C@@H](C)[C@H](CN(C)S(=O)(=O)c2cccs2)O3)cc1 | inactive: 0.987 |
| C[C@@H]1CN([C@@H](C)CO)C(=O)c2cc(C3=CCCC3)cnc2O[C@@H]1CN(C)C(=O)Nc1ccc(C(F)(F)F)cc1 | inactive: 0.969 |
| CC1CCC2C(C)C(O)OC3OC4(C)CCC1C32OO4 (configuration not stated) | inactive: 0.637 |
| C[C@@H]1CN([C@@H](C)CO)C(=O)Cc2cc(NC(=O)Nc3ccccc3)ccc2O[C@H]1CN(C)C(=O)Nc1cccc2ccccc12 | inactive: 0.97 |
| C[C@@H]1CN([C@H](C)CO)C(=O)c2cc(NC(=O)c3ccncc3)ccc2O[C@H]1CN(C)Cc1ccc2c(c1)OCO2 | inactive: 1.01 |
| C[C@H]1CN([C@@H](C)CO)C(=O)CCCn2nncc2CO[C@H]1CN(C)C(=O)Nc1cccc2ccccc12 | inactive: 0.99 |

Source: the supplement of paper PMC9446081
